Measured values published in the supplement of paper PMC8728848.
The list shows a part of the results.

What was measured:
Assay in all cases: glycan array binding signal (z-score within array); higher = stronger binding
Details in all cases: glycan notation: IUPAC condensed, linker removed
[1] = target: Neu5Ac(a2-6)Gal(b1-4)GlcNAc(b1-6)GalNAc
Outline: (§1)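 Arrays were curated from the Consortium for Functional Glycomics database, 3228 in total, and kept only where the protein sequence was available. Binding is expressed as a within-array Z-score. This score was averaged across arrays of the same protein sequence at different concentrations or buffers and across linkers, and negative values can be read as non-binding.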

[2] = target: Neu5Ac(a2-6)Gal(b1-4)GlcNAc(b1-6)[Gal(b1-3)GlcNAc(b1-3)]Gal(b1-4)Glc
Outline: as §1

[3] = target: Neu5Ac(a2-6)Gal(b1-4)GlcNAc(b1-6)[Gal(b1-3)]GalNAc
Outline: as §1

[4] = target: Neu5Ac(a2-6)Gal(b1-4)GlcNAc6S
Outline: as §1

Neu5Ac(a2-6)GalNAc = target: Neu5Ac(a2-6)GalNAc
Outline: as §1

[5] = target: Neu5Ac(a2-6)GalNAc(b1-4)GlcNAc
Outline: as §1

[6] = target: Neu5Ac(a2-6)GalNAc(b1-4)GlcNAc6S
Outline: as §1

[7] = target: Neu5Ac(a2-6)GlcNAc(b1-4)GlcNAc
Outline: as §1

[8] = target: Neu5Ac(a2-6)GlcNAc(b1-4)GlcNAc(b1-4)GlcNAc
Outline: as §1

Neu5Ac(a2-8)Neu5Ac = target: Neu5Ac(a2-8)Neu5Ac
Outline: as §1

[9] = target: Neu5Ac(a2-8)Neu5Ac(a2-3)Gal(b1-3)GalNAc(b1-4)[Neu5Ac(a2-3)]Gal(b1-4)Glc
Outline: as §1

[10] = target: Neu5Ac(a2-8)Neu5Ac(a2-3)Gal(b1-3)GalNAc(b1-4)[Neu5Ac(a2-8)Neu5Ac(a2-3)]Gal(b1-4)Glc
Outline: as §1

[11] = target: Neu5Ac(a2-8)Neu5Ac(a2-3)Gal(b1-4)Glc
Outline: as §1

[12] = target: Neu5Ac(a2-8)Neu5Ac(a2-3)Gal(b1-4)GlcNAc
Outline: as §1

[13] = target: Neu5Ac(a2-8)Neu5Ac(a2-3)[Gal(b1-3)GalNAc(b1-4)]Gal(b1-4)Glc
Outline: as §1

[14] = target: Neu5Ac(a2-8)Neu5Ac(a2-3)[GalNAc(b1-4)]Gal(b1-4)Glc
Outline: as §1

[15] = target: Neu5Ac(a2-8)Neu5Ac(a2-8)Neu5Ac
Outline: as §1

[16] = target: Neu5Ac(a2-8)Neu5Ac(a2-8)Neu5Ac(a2-3)Gal(b1-4)Glc
Outline: as §1

[17] = target: Neu5Ac(a2-8)Neu5Ac(a2-8)Neu5Ac(a2-3)[Gal(b1-3)GalNAc(b1-4)]Gal(b1-4)Glc
Outline: as §1

[18] = target: Neu5Ac(a2-8)Neu5Ac(a2-8)Neu5Ac(a2-3)[GalNAc(b1-4)]Gal(b1-4)Glc
Outline: as §1

[19] = target: Neu5Ac(a2-8)Neu5Ac(a2-8)Neu5Ac(a2-8)Neu5Ac(a2-3)[GalNAc(b1-4)]Gal(b1-4)Glc
Outline: as §1

[20] = target: Neu5Ac(a2-8)Neu5Gc(a2-3)Gal(b1-4)GlcNAc
Outline: as §1

[21] = target: Neu5Ac(b2-6)Gal(b1-4)GlcNAc
Outline: as §1

Neu5Ac(b2-6)GalNAc = target: Neu5Ac(b2-6)GalNAc
Outline: as §1

[22] = target: Neu5Ac9Ac(a2-3)Gal(b1-3)GlcNAc
Outline: as §1

[23] = target: Neu5Ac9Ac(a2-3)Gal(b1-4)GlcNAc
Outline: as §1

[24] = target: Neu5Ac9Ac(a2-6)Gal(b1-4)GlcNAc
Outline: as §1

[25] = target: Neu5Gc(a2-3)Gal(b1-3)GlcNAc
Outline: as §1

[26] = target: Neu5Gc(a2-3)Gal(b1-3)[Fuc(a1-4)]GlcNAc
Outline: as §1

Neu5Gc(a2-3)Gal(b1-4)Glc = target: Neu5Gc(a2-3)Gal(b1-4)Glc
Outline: as §1

[27] = target: Neu5Gc(a2-3)Gal(b1-4)GlcNAc
Outline: as §1

[28] = target: Neu5Gc(a2-3)Gal(b1-4)GlcNAc(b1-3)Gal(b1-4)GlcNAc(b1-2)Man(a1-3)[Neu5Gc(a2-3)Gal(b1-4)GlcNAc(b1-3)Gal(b1-4)GlcNAc(b1-2)Man(a1-6)]Man(b1-4)GlcNAc(b1-4)GlcNAc
Outline: as §1

[29] = target: Neu5Gc(a2-3)Gal(b1-4)[Fuc(a1-3)]GlcNAc
Outline: as §1

[30] = target: Neu5Gc(a2-6)Gal(b1-4)GlcNAc
Outline: as §1

Neu5Gc(a2-6)GalNAc = target: Neu5Gc(a2-6)GalNAc
Outline: as §1

[31] = target: Neu5Gc(a2-8)Neu5Ac(a2-3)Gal(b1-4)GlcNAc
Outline: as §1

[32] = target: Neu5Gc(a2-8)Neu5Gc(a2-3)Gal(b1-4)GlcNAc
Outline: as §1

[33] = target: Neu5Gc(a2-8)Neu5Gc(a2-3)Gal(b1-4)GlcNAc(b1-3)Gal(b1-4)GlcNAc
Outline: as §1

B1: PX9961H-bth-557-24-557 (Bacteroides thetaiotaomicron) (protein)
chain: EETRTEVEKKNYMNNAEEAKDVLLGVYRTNTLDAMYGYYLSILFNLGTDISQVEGSGNENFRIIPTNSFPTTQSEVQQTWAALYTGIYRANDFLERISNKIGSYTTTDKKLATLYIAEARALRGMFYFELVRRFGNVVLMTSTQMSNQNPATYVQSAPEKVYEYIEDDLLYACDILPYATDDQYRESNDYRFSKGAALGLLTKVYATWAGYPVKDESKWEAAAKTARILVESGKHGLLKDYEQLWKNTCNGTWDPTESLIEISFYSPTVSGNSDPVGRIGKWNGVKTTAIAGVRGSCAANVKVVHTFVLDWREDVSDIRRDLSIANYQYTDTKKSLWVAGASDTDESAAEKDADPTKAQKNKQNYTPAKWDIQKYVTTNSFINNDKSNVNWYFLRYADVLLLYAEALNEWKHGPDAEAYNAINAVRRRGYGNPSNTSACDLPQGLDETSFREAVRKERSYELSFEGHRRQDLIRWGIYYKTVQATAKELGYWWEGTGSPNYSVATYTEEGKHELFPIPQRDMDLCIQFNQNPKW
- glycan array binding signal (z-score) [1]: -0.515
- glycan array binding signal (z-score) [2]: -0.544
- glycan array binding signal (z-score) [3]: 0.001
- glycan array binding signal (z-score) [4]: -0.773
- glycan array binding signal (z-score) (Neu5Ac(a2-6)GalNAc): 0.031
- glycan array binding signal (z-score) [5]: -0.394
- glycan array binding signal (z-score) [6]: -0.466
- glycan array binding signal (z-score) [7]: -0.469
- glycan array binding signal (z-score) [8]: 0.201
- glycan array binding signal (z-score) (Neu5Ac(a2-8)Neu5Ac): -0.128
- glycan array binding signal (z-score) [9]: -0.541
- glycan array binding signal (z-score) [10]: 0.552
- glycan array binding signal (z-score) [11]: -0.423
- glycan array binding signal (z-score) [12]: -0.532
- glycan array binding signal (z-score) [13]: -0.464
- glycan array binding signal (z-score) [14]: 1.01
- glycan array binding signal (z-score) [15]: -0.164
- glycan array binding signal (z-score) [16]: -0.336
- glycan array binding signal (z-score) [17]: 0.142
- glycan array binding signal (z-score) [18]: -0.22
- glycan array binding signal (z-score) [19]: -0.267
- glycan array binding signal (z-score) [20]: 7.98
- glycan array binding signal (z-score) [21]: 0.015
- glycan array binding signal (z-score) (Neu5Ac(b2-6)GalNAc): -0.434
- glycan array binding signal (z-score) [22]: -0.391
- glycan array binding signal (z-score) [23]: -0.592
- glycan array binding signal (z-score) [24]: -0.047
- glycan array binding signal (z-score) [25]: -0.511
- glycan array binding signal (z-score) [26]: -0.41
- glycan array binding signal (z-score) (Neu5Gc(a2-3)Gal(b1-4)Glc): -0.062
- glycan array binding signal (z-score) [27]: -0.227
- glycan array binding signal (z-score) [28]: -0.077
- glycan array binding signal (z-score) [29]: -0.313
- glycan array binding signal (z-score) [30]: -0.44
- glycan array binding signal (z-score) (Neu5Gc(a2-6)GalNAc): 0.153
- glycan array binding signal (z-score) [31]: -0.334
- glycan array binding signal (z-score) [32]: -0.494
- glycan array binding signal (z-score) [33]: -0.519
